Measured values: PubChem BioAssay AID1345083 (National Center for Advancing Translational Sciences (NCATS), 2018)
Among all 94,000 compounds or so, about 6,200 (6.6%) were called active. This list was built around the results that the source calls inconclusive (neither active nor inactive); the mix of calls is not that of the screen. Calls come from the whole dose curve; as a rule, active = well fitted inhibition curve with a large enough effect; inconclusive = small, poorly fitted or top-dose-only effect; inactive = flat fitted curve, though single readings scatter. Where the call is inconclusive, the potency comes from a doubtful curve fit.

Assay: Cytotoxic Profiling in HEK 293 Cell Line of Diverse Libraries Using Quantitative High-Throughput Screening; note: nearly all actives have a fitted effect of over 60% in size
Details: HEK 293 viability, ATP luminescence (CellTiter-Glo), 48-72 h; activity change, negative = cytotoxicity: at 115 µM (top of the series) unless noted; series mostly up to 115 µM
In short: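 Viability of HEK 293 cells, plated at 250 cells/well, was judged by cellular ATP after compound treatment for 48 or 72 hr. Luminescence was imaged 10 min after CellTiter-Glo addition at room temperature.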
% is set by controls: 0 for no effect and ±100 for the full control effect; potency is the fitted concentration of half-maximal effect; tags give direction and shape of the fitted curve.

| Structure (SMILES) | Potency | activity change, negative = cytotoxicity |
| --- | --- | --- |
| O=C(c1cccs1)N1CCOc2ccc(N3CCCC3)cc2C1 | active: 17.8 µM | – |
| COc1ccccc1-n1cc(C(=O)NC[C@@H]2C[C@H](F)CN2)cn1 | – | inactive: -8.9% |
| CCn1cc(CN2CCC3(CC2)CC(C(=O)N2CCOCC2)N(C)C3)c(C)n1 (stereo not given) | – | inactive: 0.442% |
| OC[C@@H]1CN(Cc2ccco2)C[C@H]1c1nc(-c2ccncc2)no1 | inconclusive: 50.1 µM [inhibitor, partial curve, poor fit] | – |
| COc1cccc(-c2ccc(NC(=O)C3CCCN3C(=O)CNC(C)=O)cc2)c1 (stereo not given) | inconclusive: 8.91 µM [inhibitor, full curve, poor fit] | – |
| CN(Cc1cccc(C(F)(F)F)c1)C(=O)CC1CCCC1 | – | inactive: -26.9% [at 172 µM] |
| CN(Cc1cc(C[C@@H]2C[C@H](NCc3cccnc3)C2(C)C)no1)c1ccccc1 | active: 63.1 µM | – |
| O=C(c1cccc(Cl)c1)N1CCN(c2cc(C(F)(F)F)ncn2)CC1 | inconclusive: 50.1 µM [inhibitor, partial curve, poor fit] | – |
| CC(C)c1ccc(S(=O)(=O)c2nnn3c2nc(NCc2ccc(F)cc2)c2ccccc23)cc1 | – | inactive: -25.4% |
| CC1=C[C@@H](CNC(=O)COCC(=O)O)[C@H](C(C)C)C[C@H]1Cc1nc2ccc(C)cc2[nH]1 | – | inactive: -20.1% [at 172 µM] |
| Cc1noc(-c2ccc(OC3CN(C(=O)NC4CCCC4)C3)cc2)n1 | inconclusive: 17.8 µM [inhibitor, full curve, poor fit] | – |
| COC1CN(c2cccc(F)c2)C12CCN(C(=O)c1ccc3ncccc3c1)CC2 (stereo not given) | inconclusive: 50.1 µM [inhibitor, partial curve, poor fit] | – |
| O=C(c1ccc(C(F)(F)F)cc1)N1CCC2(CC1)COc1ccccc1S(=O)(=O)N2 | inconclusive: 79.4 µM [inhibitor, partial curve] | – |
| Cn1nc(C2CC2)n(C2CCN(C(=O)c3ccsc3)CC2)c1=O | – | inactive: 1.58% |
| Cc1ccc(-c2ccccc2CN2CCN(C(=O)N(C)C)CC2)cc1Cl | active: 31.6 µM | – |
| COc1ccc(CN2CCC(c3nn(Cc4ccccc4)c(=O)[nH]3)CC2)cc1 | – | inactive: -7.28% |
| Cn1c(CN2CCC3(CCNCC3)C2)cc2ccccc21 | inconclusive: 50.1 µM [inhibitor, partial curve, poor fit] | – |
| COCc1nnc(NC(=O)C2c3ccccc3C(=O)N(CC(C)C)C23CCCC3)s1 (stereo not given) | inconclusive: 89.1 µM [inhibitor, single point] | – |
| O=C(C1CCCN1C(=O)c1cccc(-c2ccccn2)c1)N1CCOCC1 (stereo not given) | – | inactive: -10.5% |
| CCCCOc1ccc(CN2C[C@@H]3C(=O)N(C)C(=O)[C@@H]3C2)cc1 | inconclusive: 79.4 µM [inhibitor, single point] | – |
